We go through 23 compounds from PubChem BioAssay AID1346428 (National Center for Advancing Translational Sciences (NCATS), 2018).

Screen size: about 48,000 compounds; about 1,200 (2.5%) were called active. Roughly 2% stayed inconclusive and do not appear here.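 Rule for the calls: active = activation of at least 60% and not above a set upper limit (about 1 call in 100 departs from these limits); inconclusive = activation of 40% to 60%, or above that upper limit; inactive = activation under 40%.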 The list shows a part of the results.

Sequence of UniProt O75388 (O75388 whole entry, looked up): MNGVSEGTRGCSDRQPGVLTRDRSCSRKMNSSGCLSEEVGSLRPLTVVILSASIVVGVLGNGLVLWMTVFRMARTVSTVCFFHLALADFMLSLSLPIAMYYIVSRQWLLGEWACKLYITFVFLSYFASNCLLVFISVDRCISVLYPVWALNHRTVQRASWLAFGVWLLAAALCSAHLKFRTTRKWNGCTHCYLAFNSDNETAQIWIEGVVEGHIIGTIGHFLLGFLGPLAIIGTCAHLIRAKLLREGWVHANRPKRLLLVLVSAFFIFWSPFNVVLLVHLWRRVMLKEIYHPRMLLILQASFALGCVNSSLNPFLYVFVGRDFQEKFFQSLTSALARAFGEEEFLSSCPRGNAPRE

The assay addresses Probable G-protein coupled receptor 32 (Homo sapiens) (UniProt O75388). The assay is described as follows: qHTS for Agonists of Human Resolvin D1 Receptor DRV1. The conditions noted are these: CHO-K1 GPR32 beta-arrestin PathHunter luminescence, 90 min; at 76.9 µM; stronger effect = higher value; zero percent set by DMSO-only wells. In a few lines:
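Using DMSO wells as EC0, agonist-induced signal was taken as chemiluminescence from beta-Gal reconstituted upon beta-arrestin recruitment to GPR32 in CHO-K1 cells after 90 min compound treatment.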
In general terms: qHTS replaces the single test concentration by a dilution series.
In the case of `O=C(CCS(=O)(=O)c1cccs1)Nc1ccc(C(=O)Nc2cccc(Cl)c2)cc1`, the activation was active: 65.3%.
Consider `Cc1cc(C)c2c(=O)c3c(oc2c1)C(=O)N(Cc1ccc(F)cc1)C3c1cccc(O)c1` (stereo not drawn), for which the activation is inactive: -26%.
To `COc1cccc(NC(=O)CN2CCCN(S(=O)(=O)c3ccc(Br)cc3)CC2)c1` belongs inactive: -7.5%; to `COc1ccc(Cn2ccnc2SCC(=O)Nc2ccc(C)cc2C)cc1`, inactive: -13%; to `CC(C)(C)CC(=O)Nc1nnc2n1CCS2`, inactive: 11.9%.
As to `Cc1ccc(CNC(=O)CN(c2ccc(C(C)C)cc2)S(=O)(=O)c2c(C)n[nH]c2C)cc1`, the activation is active: 83.3%.
To `O=C(NCCSCc1c(F)cccc1Cl)C1CCN(S(=O)(=O)Cc2ccccc2)CC1` belongs inactive: -4.9%.
As to `COc1ccccc1CNC(=O)CN1C(=O)CSc2c1c(C)nn2-c1ccccc1`, the activation was inactive: -21.9%.
The figure for `CCCC(=O)NCC(c1ccc2c(c1)OCO2)N1CCOCC1` (stereo not drawn) is inactive: 0.191%.
The figure for `O=C(COc1ccc(Cl)cc1)Nc1ccccc1C(=O)OCc1cc(=O)n2ccsc2n1` is inactive: -10.7%.
The figure for `Cc1cc(C)cc(N(CC(=O)NCc2ccccc2Cl)S(=O)(=O)c2c(C)[nH]c(=O)[nH]c2=O)c1` is inactive: -3.06%; for `CCOc1ccc(NC(=O)CN2CCSc3ccc(S(=O)(=O)N4CCCC4)cc32)cc1` it is inactive: -0.037%; for `CCn1cc(S(=O)(=O)c2ccc(C)cc2C)c(=O)c2cc(F)c(N3CCCCC3)cc21` it is inactive: -32.1%.
Consider `COC(=O)c1c(NC(=O)/C=C/c2ccc(OC)c(OC)c2)sc2c1CCC2`, for which the activation is inactive: -17.9%.
The figure for `CCN(CC)c1cc2c(cc1F)c(=O)c(S(=O)(=O)c1ccccc1)cn2C` is inactive: -8.36%; for `Cc1noc(Cn2c(=O)c3ccccc3n(CC(=O)Nc3ccc(C(C)C)cc3)c2=O)n1` it is inactive: -29.7%; for `O=C(NCc1ccccc1)c1ccc2c(c1)nc1n2CCOC1` it is inactive: -7.07%.
Regarding `COCCNC(=O)CSc1nnc2[nH]c(=O)cc(C)n12`, the activation is inactive: -11.4%.
For the compound `CCN(CC)c1ccc(NC(=O)CN2C(=O)c3cccnc3Oc3ccc(Cl)cc32)c(C)c1`, the activation is inactive: -6.85%.
With `CCN(CC)CCCNC(=O)CN1C(=O)COc2ccc(S(=O)(=O)N3CCC(C)CC3)cc21`, the activation is inactive: -2.29%.
In the case of `CC(Nc1oc(-c2ccc(COc3ccc(Cl)cc3)o2)nc1C#N)c1ccccc1` (stereo not drawn), the activation was inactive: 6.88%.
The figure for `C[N+]1(C)CCCC(OC(=O)C(O)(c2ccccc2)c2ccccc2)C1` (stereo not drawn) is inactive: -6.6%.
To `CCc1ccccc1NS(=O)(=O)c1cc(Br)cc2c1N(C(=O)C1CC1)CC2` belongs inactive: 22.8%.
